This note sets out measurements from patent US20170296680A1 (NATIONAL RESEARCH COUNCIL OF CANADA, published 2017).

Experiment [1] concerns the target T1, recombinant human tau protein, isoform 2N4R (Tau-441) (human, UniProt P10636-8 1-441).
T1 construct: Bought
Kind of experiment: SPR (Biacore 3000), over immobilized Tau-441, duplicate injection. The procedure:
(§1) Surface Plasmon Resonance (SPR): All binding assays for DH-Tau15 and Fc-Tau15 were carried out at 25° C. on a Biacore™ 3000 instrument (GE Healthcare). […] The running buffer for all SPR experiments was HBS-EP+ (10 mM HEPES, 150 mM NaCl, 3 mM EDTA, pH 7.4, 0.05% surfactant P20; GE Healthcare). The antibodies were injected at 20 μL/min for 2 min with a dissociation time of 30 min. Data was analyzed using the Biacore 3000 BIAevaluations software Version 4.1.
Background: In SPR one partner is held on a chip, and binding of the other changes the refractive index at the surface.

The target in experiment [2] is T1, recombinant human tau protein, isoform …. Kind of experiment: SPR (Biacore 3000), over immobilized Tau-441. The procedure: as §1

Where “and” joins values, the source holds several entries; their conditions need not be identical. Equal entries are not always repeated.

B1: Tau15-Fc fusion (Fc-Tau15) (Fc fusion)
chain: QVKLEESGGGLVQPGGSLRLSCAASGFTFSNFAMTWVRQSPGKGLEWVSAIDNDGGRTSYSDSVKGRFTISRDNAKNTLYLQMNSLKPEDTAMYYCAAMNLATRKWELWGQGTQVTVSSA[in this place human IgG1 Fc with K218I (EU numbers)]
notes: Tau15 VH fused to human Fc; expressed in HEK-293-6E cells, purified on protein A; dimer by SEC; also called VH-Fc fusion
As for B1, the dissociation rate constant (koff) in experiment [1] is 6.73e-05 s⁻¹ and 7.02e-05 s⁻¹. In addition, in experiment [2], the “fold slower off rate than monomeric Tau15” value was ~1000 fold.

For orientation: koff means the rate constant with which the complex falls apart.
